{"sequences": {"note": "The chains behind the UniProt entries cited, without tags or fusion partners. Where a name states a change or a piece, a line headed by the entry shows the natural chain unless it says otherwise.", "UniProt O43791": "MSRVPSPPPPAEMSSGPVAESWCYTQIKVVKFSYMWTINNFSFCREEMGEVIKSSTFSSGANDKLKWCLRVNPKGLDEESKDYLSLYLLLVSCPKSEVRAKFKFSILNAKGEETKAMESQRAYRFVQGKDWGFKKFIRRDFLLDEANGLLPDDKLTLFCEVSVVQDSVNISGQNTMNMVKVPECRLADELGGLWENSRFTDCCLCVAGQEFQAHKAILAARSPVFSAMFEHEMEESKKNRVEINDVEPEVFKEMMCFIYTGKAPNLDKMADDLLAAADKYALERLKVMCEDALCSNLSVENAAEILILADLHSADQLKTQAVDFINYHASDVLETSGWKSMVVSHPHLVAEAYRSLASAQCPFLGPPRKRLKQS", "UniProt Q13283": "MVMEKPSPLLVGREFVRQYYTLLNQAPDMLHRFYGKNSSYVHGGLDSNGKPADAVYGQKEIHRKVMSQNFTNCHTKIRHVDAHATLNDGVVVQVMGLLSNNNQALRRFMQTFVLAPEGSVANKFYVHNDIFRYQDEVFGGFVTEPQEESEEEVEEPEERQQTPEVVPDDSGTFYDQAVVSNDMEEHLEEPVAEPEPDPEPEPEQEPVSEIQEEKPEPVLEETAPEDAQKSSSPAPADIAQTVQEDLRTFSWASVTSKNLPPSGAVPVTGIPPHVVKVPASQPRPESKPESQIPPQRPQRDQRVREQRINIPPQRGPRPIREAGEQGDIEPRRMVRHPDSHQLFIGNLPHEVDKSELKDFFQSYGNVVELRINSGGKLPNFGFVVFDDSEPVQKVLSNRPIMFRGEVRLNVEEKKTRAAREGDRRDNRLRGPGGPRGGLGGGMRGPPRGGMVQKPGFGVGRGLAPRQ"}, "source": "paper PMC8602290", "key": {"[1]": {"molecular_target": "HA-SPOP full length (HEK 293T) (UniProt O43791)", "assay": "co-IP; HEK 293T cells transfected with tagged SPOP and G3BP1 constructs; lysis in 50 mM Tris pH 7.5, 120 mM NaCl, 1% NP-40, 5 mM EDTA; IP with HA, MYC or FLAG antibodies overnight at 4 C, Protein G sepharose (Fig. 2c, d)"}, "[2]": {"molecular_target": "MATH domain of SPOP (22Rv1, transfected) (UniProt O43791)", "assay": "co-IP; whole cell lysates of 22Rv1 cells transfected with G3BP1 domains and the SPOP MATH domain (Fig. 2e)"}, "[3]": {"molecular_target": "HA-SPOP (LNCaP-sgG3BP1) (UniProt O43791)", "assay": "co-IP; LNCaP-sgG3BP1 cell line (endogenous G3BP1 deleted), FLAG-G3BP1^NTF2 and HA-SPOP (Supplementary Fig. 2B)"}, "[4]": {"molecular_target": "Speckle-type POZ protein (SPOP), endogenous in 22Rv1 cells (human (endogenous in 22Rv1)) (UniProt O43791)", "assay": "co-IP; 22Rv1 cells transfected with G3BP1 or G3BP1^RRM; NP40 lysates treated without or with 100 U RNase ONE, 1 h, 37 C, then immunoprecipitated"}, "[5]": {"molecular_target": "FLAG-G3BP1^(338-466), RRM-RGG domain of G3BP1 (HEK 293T) (UniProt Q13283)", "assay": "co-IP; reverse IP with anti-FLAG antibody of the FLAG-G3BP1 constructs co-expressed with HA-SPOP (Supplementary Fig. 2A)"}, "[6]": {"molecular_target": "FLAG-G3BP1^(1-138), NTF2 domain of G3BP1 (HEK 293T) (UniProt Q13283)", "assay": "co-IP; reverse IP with anti-FLAG antibody of the FLAG-G3BP1 constructs co-expressed with HA-SPOP (Supplementary Fig. 2A)"}, "[7]": {"molecular_target": "GTPase Activating Protein (SH3 Domain) Binding Protein 1 (G3BP1), endogenous in 22Rv1 cells (human (endogenous in 22Rv1)) (UniProt Q13283)", "assay": "co-IP; 22Rv1 cells transfected with HA-SPOP^WT, HA-SPOP^F133V or HA-SPOP^F102C, 48 h; IP with anti-G3BP1 antibody, immunoblot anti-HA-SPOP or anti-G3BP1"}, "[8]": {"molecular_target": "Myc-G3BP1 (HEK 293T) (UniProt Q13283)", "assay": "co-IP; HEK 293T cells transfected with tagged SPOP and G3BP1 constructs; lysis in 50 mM Tris pH 7.5, 120 mM NaCl, 1% NP-40, 5 mM EDTA; IP with HA, MYC or FLAG antibodies overnight at 4 C, Protein G sepharose (Fig. 2c, d)"}, "[9]": {"molecular_target": "GTPase Activating Protein (SH3 Domain) Binding Protein 1 (G3BP1), endogenous in 22Rv1 cells (human (endogenous in 22Rv1)) (UniProt Q13283)", "assay": "co-IP; 22Rv1 cell lysates, IP with IgG or anti-G3BP1 antibody, immunoblot with anti-SPOP and anti-G3BP1; endogenous proteins"}, "[10]": {"molecular_target": "GTPase Activating Protein (SH3 Domain) Binding Protein 1 (G3BP1), endogenous in 22Rv1 cells (human (endogenous in 22Rv1)) (UniProt Q13283)", "assay": "proximity ligation; endogenous G3BP1 and SPOP (Supplementary Fig. 1C)"}}, "note": "These are yes or no findings as the source states them, for the method shown. In cells and extracts the contact can be indirect. Some results given as binding are weak or reduced against the parent protein; the word gives no strength."}
{"substance": "FLAG-G3BP1^(1-138), NTF2 domain of G3BP1 (HEK 293T) (from UniProt Q13283 1-138) (domain or fragment)", "values": [{"measurement": "binding", "setting": "[1]", "value": "binds"}]}
{"substance": "FLAG-G3BP1^(139-338), acidic and PxxP region of G3BP1 (HEK 293T) (from UniProt Q13283 139-338) (domain or fragment)", "values": [{"measurement": "binding", "setting": "[1]", "value": "no binding"}]}
{"substance": "FLAG-G3BP1^(222-338), PxxP region of G3BP1 (HEK 293T) (from UniProt Q13283 222-338) (domain or fragment)", "values": [{"measurement": "binding", "setting": "[1]", "value": "no binding"}]}
{"substance": "FLAG-G3BP1^(338-466), RRM-RGG domain of G3BP1 (HEK 293T) (from UniProt Q13283 338-466) (domain or fragment)", "values": [{"measurement": "binding", "setting": "[1]", "value": "binds"}]}
{"substance": "FLAG-G3BP1^NTF2 (22Rv1) (from UniProt Q13283 1-138) (domain or fragment)", "values": [{"measurement": "binding", "setting": "[2]", "value": "binds"}]}
{"substance": "FLAG-G3BP1^NTF2 (LNCaP-sgG3BP1) (from UniProt Q13283 1-138) (domain or fragment)", "values": [{"measurement": "binding", "setting": "[3]", "value": "binds"}]}
{"substance": "FLAG-G3BP1^RRM (22Rv1) (from UniProt Q13283 338-466) (domain or fragment)", "values": [{"measurement": "binding", "setting": "[2]", "value": "binds"}, {"measurement": "binding", "setting": "[4]", "value": "binds"}]}
{"substance": "HA-SPOP full length (HEK 293T) (from UniProt O43791 1-374)", "values": [{"measurement": "binding", "setting": "[5]", "value": "binds"}, {"measurement": "binding", "setting": "[6]", "value": "binds"}]}
{"substance": "HA-SPOP^F102C (22Rv1) (from UniProt O43791 1-374)", "values": [{"measurement": "binding", "setting": "[7]", "value": "no binding"}]}
{"substance": "HA-SPOP^F133V (22Rv1) (from UniProt O43791 1-374)", "values": [{"measurement": "binding", "setting": "[7]", "value": "no binding"}]}
{"substance": "HA-SPOP^MATH, HA-tagged MATH domain of SPOP (HEK 293T) (from UniProt O43791 31-161) (domain or fragment)", "values": [{"measurement": "binding", "setting": "[8]", "value": "binds"}]}
{"substance": "HA-SPOP^WT (22Rv1) (from UniProt O43791 1-374)", "values": [{"measurement": "binding", "setting": "[7]", "value": "binds"}]}
{"substance": "Speckle-type POZ protein (SPOP), endogenous in 22Rv1 cells (from UniProt O43791 1-374)", "values": [{"measurement": "binding", "setting": "[9]", "value": "binds"}, {"measurement": "binding", "setting": "[10]", "value": "binds"}]}
